Laboratory results as given in publication PMC4336329 (PLoS ONE, 2015).
The whole screen tested about 310,000 compounds, of which about 14,000 (4.5%) showed an effect of 50% or more. Effects have a minus sign here. This is one part of the list.

biological target: human ether-à-go-go-related gene (hERG) potassium channel (human, UniProt Q12809); experiment: primary screen, population patch clamp on CHO cells stably expressing hERG
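Further: peak tail current of the secondary pulse compared with the same well before compound.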

Sequence of human ether-à-go-go-related gene (hERG) potassium channel (Q12809 whole entry, looked up): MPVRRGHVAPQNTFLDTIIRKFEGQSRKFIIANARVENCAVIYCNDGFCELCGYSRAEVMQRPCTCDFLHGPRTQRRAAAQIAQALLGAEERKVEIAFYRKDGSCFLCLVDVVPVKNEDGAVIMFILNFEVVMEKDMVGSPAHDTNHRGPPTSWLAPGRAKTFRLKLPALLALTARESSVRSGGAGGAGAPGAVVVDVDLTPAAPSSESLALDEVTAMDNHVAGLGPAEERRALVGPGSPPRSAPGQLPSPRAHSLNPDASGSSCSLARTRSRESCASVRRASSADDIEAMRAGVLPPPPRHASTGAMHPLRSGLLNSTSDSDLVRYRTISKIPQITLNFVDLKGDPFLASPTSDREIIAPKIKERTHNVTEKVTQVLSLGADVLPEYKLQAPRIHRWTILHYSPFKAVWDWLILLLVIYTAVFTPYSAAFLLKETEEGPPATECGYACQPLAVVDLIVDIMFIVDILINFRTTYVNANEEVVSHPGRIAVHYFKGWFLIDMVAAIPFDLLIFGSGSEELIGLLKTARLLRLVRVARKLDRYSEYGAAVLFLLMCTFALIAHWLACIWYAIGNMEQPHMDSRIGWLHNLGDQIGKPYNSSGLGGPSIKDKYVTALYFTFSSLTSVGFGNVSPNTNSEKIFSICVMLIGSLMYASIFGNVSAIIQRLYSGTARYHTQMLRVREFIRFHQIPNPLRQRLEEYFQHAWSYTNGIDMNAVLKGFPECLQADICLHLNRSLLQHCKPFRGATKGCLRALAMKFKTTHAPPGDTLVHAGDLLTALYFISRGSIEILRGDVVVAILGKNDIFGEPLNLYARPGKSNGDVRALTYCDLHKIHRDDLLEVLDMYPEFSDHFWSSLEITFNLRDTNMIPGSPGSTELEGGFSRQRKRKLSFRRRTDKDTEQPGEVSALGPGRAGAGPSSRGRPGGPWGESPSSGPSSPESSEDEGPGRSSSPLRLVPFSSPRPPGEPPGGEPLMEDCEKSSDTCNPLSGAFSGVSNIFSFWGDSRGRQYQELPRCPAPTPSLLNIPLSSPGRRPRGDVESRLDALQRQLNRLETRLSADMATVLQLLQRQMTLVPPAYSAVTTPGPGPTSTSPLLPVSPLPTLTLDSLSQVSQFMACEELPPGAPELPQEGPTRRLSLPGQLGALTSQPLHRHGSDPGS

Row | SMILES | hERG current change (%, negative = inhibition) at 10uM [%]
1 | COc1cc(/C=C2\N=C(c3ccccc3)NNC2=O)cc(OC)c1OC | 14
2 | Cc1c(C#N)c2ncn(Cc3ccccc3)c(=O)c2n1-c1ccccc1 | 1.55
3 | CCC(C)(C)NC(=O)C(c1ccc(OC)cc1)N(Cc1ccc(OC)cc1)C(=O)CCC(=O)Nc1cc(C)on1 (stereo not drawn) | 8.17
4 | O=C(CCS(=O)(=O)c1ccc(Br)cc1)Nc1cc(F)ccc1F | 1.3
5 | CCOc1ccc(OCC)c(C2C(C#N)=C(N)N(c3cccnc3)C3=C2C(=O)CC(C)(C)C3)c1 (stereo not drawn) | 0.96
6 | COCCCNC(=O)c1ccccc1N(Cc1ccccc1)S(=O)(=O)c1ccccc1 | 16.3
7 | CC(C)C(=O)Nc1ccc(C(=O)NNC(=S)NC(=O)c2ccccc2[N+](=O)[O-])cc1 | 11.5
8 | CN(Cc1ccccc1)C(=O)c1nc[nH]c1C(=O)N1CCN(C(=O)OC(C)(C)C)CC1 | 11.2
9 | CC(C)(C)c1ccc(N2C(=O)CSC2c2cccnc2)cc1 (stereo not drawn) | 4.38
10 | CCCNC(=O)C(Cc1ccccc1)NC(=O)c1ccccc1 (stereo not drawn) | 7.51
11 | CCOC(=O)c1sc2nc(C)nc(SCC(=O)N(CC)C3CCS(=O)(=O)C3)c2c1C (stereo not drawn) | 4.76
12 | Cc1ccn2c(C(=O)CSc3ccccc3)c(C)nc2c1 | 5.58
13 | Cn1cc(CNCc2cn(C)nc2-c2ccc(C3CCCCC3)cc2)cn1 | -39.8
14 | Cc1ccc(NC(=O)c2ccc(C)cc2)cc1 | -5.64
15 | COc1ccc(C)cc1S(=O)(=O)NCC(c1ccco1)N1CCc2ccccc2C1 (stereo not drawn) | -62.8
16 | CCOC(=O)N1CCC(NC(=O)CN2C(=O)C(CC)Oc3ccc(C)cc32)CC1 (stereo not drawn) | 0.991
17 | C[C@H]1CCC/C=C/[C@@H]2C[C@H](O)C[C@H]2[C@H](O)/C=C/C(=O)O1 [56422115] | 14
18 | CC(=O)Nc1c(C)ccc(CNC(=O)COc2ccc(F)cc2)c1C | 10.6
19 | COC(=O)c1ccc(N=NN2CCOCC2)cc1 | 0.0119
20 | CCOC(=O)CNS(=O)(=O)c1cc(-c2nnc(Nc3ccc4c(c3)OCO4)c3ccccc23)ccc1C | -15.9
21 | COC(=O)c1sccc1S(=O)(=O)N1CCCC(N(C)CCc2ccccn2)C1 (stereo not drawn) | -22.7

Row | SMILES | hERG current change (%, negative = inhibition) at 10uM [%]
22 | CCn1c(SCc2nc3ccccc3c(=O)[nH]2)nnc1C(C)NC(=O)c1ccccc1 (stereo not drawn) | 26.4
23 | CN(C)c1ccc(NC(=O)CSc2nc3ccccc3c(=O)n2CC2CCCO2)cc1 (stereo not drawn) | 2.31
24 | CCCC1COC(Cn2cncn2)(c2ccc(Cl)cc2Cl)O1 (stereo not drawn) | -6.16
25 | Cc1c(NC(=O)Nc2cc(Cl)ccc2Cl)c(=O)n(-c2ccccc2)n1C | 5.72
26 | O=C(NCCN1CCCCCC1)C1CCN(S(=O)(=O)N2CCOCC2)CC1 | 5.97
27 | Cc1ccc(S(=O)(=O)Nc2cccnc2Oc2ccc(Cl)cc2)cc1 | -20.9
28 | CC(C)(C)[C@H]1C=C(C(=O)NC2CC2)O[C@@H](OCc2ccc(CO)cc2)C1 | 9.35
29 | Cc1nn(-c2ccccc2)c(C)c1N | 48.3
30 | O=C(Nc1ccccc1)Nc1ccc2ccccc2c1 | 12.2
31 | Cc1cc(NC(=O)COC(=O)CSCc2ccc(Cl)c(Cl)c2)no1 | 5.96
32 | COc1cc(C(c2c(C)[nH]n(-c3ccccc3)c2=O)c2c(C)[nH]n(-c3ccccc3)c2=O)cc(OC)c1OC | 17.6
33 | Cc1ccc(C(C)C)c(OCc2nnc(SCC(=O)Nc3ncc(C)s3)n2C)c1 | -4.11
34 | CCCS(=O)(=O)N1CCCC(C(=O)NCc2ccc(C)cc2)C1 (stereo not drawn) | 4.91
35 | O=C(CN1C(=O)C2CCCN2C(=O)c2ccccc21)Nc1ccccc1-n1cccc1 (stereo not drawn) | -21.6
36 | CC(C)CCNc1c(-c2cccs2)nc2ccccn12 | -23.2
37 | Cn1c(O)c(N=Nc2ccc(F)cc2)c2ccccc21 | 18.1
38 | CS(=O)(=O)Nc1ccc([N+](=O)[O-])cc1Oc1ccccc1 | -5
39 | O=C(Cc1ccc(F)cc1)NCCS(=O)(=O)N1CCN(c2cccc(Cl)c2)CC1 | -16.2
40 | O=C(Nc1cc(C(F)(F)F)ccc1N1CCCCC1)c1cccc([N+](=O)[O-])c1 | 4.66
41 | CC(C)(C)NC(=O)NC(=O)CN1CCN(Cc2ccccc2)CC1 | -1.77
42 | Cc1c(C(=O)Nc2ccc(F)cc2)c2ccccn2c1CCc1ccncc1 | -42.8

Row | SMILES | hERG current change (%, negative = inhibition) at 10uM [%]
43 | COCCCN1C(=O)c2ccc(C(=O)N3CCN(c4ccccc4OC)CC3)cc2C1=O | -7.05
44 | Cc1c(Cl)c([N+](=O)[O-])nn1CC(=O)NCc1ccc(Cl)cc1 | -16.6
45 | CC(C)c1nc(N2CCCC2)c(C#N)c2c1CCCC2 | -2.2
46 | Cn1c(N2CCOCC2)nc2c1c(=O)n(Cc1ccc(Cl)c(Cl)c1)c(=O)n2C | -50.5
47 | Cc1cc2nc3n(c2cc1C)CC1CC(C(=O)NCCC(C)C)N(C)C31 (stereo not drawn) | 1.81
48 | Oc1ccc(Br)cc1C=Nc1ccc2[nH]ncc2c1 | -11.8
49 | O=C(CCCn1c(=O)[nH]c2cc(Cl)ccc2c1=O)NCCN1CCN(c2ccccc2)CC1 | -48.4
50 | O=C(CN1C(=O)NC2(CCCCC2)C1=O)Nc1ccc2c(c1)CCC2 | 30.6
51 | COc1cccc(-c2nc3n(n2)C(c2cccs2)C(C(=O)Nc2cccnc2)=C(C)N3)c1 (stereo not drawn) | -72.3
52 | CCOc1ccc(NC(=O)C2C(C(=O)O)C3(Cl)C(Cl)=C(Cl)C2(Cl)C3(Cl)Cl)cc1 (stereo not drawn) | 2.09
53 | COc1ccc(/C(N)=N/OC(=O)C2CCC(=O)N2S(=O)(=O)c2ccc(C)cc2)cc1 (stereo not drawn) | 6.53
54 | N#CC1=C(N)SC(N)=C(C#N)C1c1ccnc2ccccc12 | 20.4
55 | COc1cc(/C=C(/C#N)C(=O)Nc2ccc(C)cc2)ccc1Oc1nc(Cl)ncc1F | -1.55
56 | CCN(C(=O)CSc1nc2ccccc2c(=O)n1Cc1ccc(C)cc1)C1CCS(=O)(=O)C1 (stereo not drawn) | -71
57 | CSc1nc2sc3c(c2c2nncn12)CCC3 | -25.2
58 | COc1cc(C=O)ccc1OC(=O)c1ccc(C(C)C)cc1 | 4.05
59 | O=C(O)COc1ccccc1/C=N/NC(=O)Cc1ccccc1 | 20.7
60 | Nc1nnc(CC(=O)N/N=C/c2ccc(-c3ccc(Cl)cc3Cl)o2)s1 | 17.2
61 | CCOC(=O)c1ccc(NC2=CC(=O)CC(c3ccco3)C2)cc1 (stereo not drawn) | -16.8
62 | C/C(=N\NC(=O)CCc1ccc(S(=O)(=O)N2CCOCC2)cc1)c1ccc(Br)cc1 | 6.98
63 | Cc1cccc(Nc2nnc(SCC(=O)NC3CCCc4ccccc43)s2)c1C (stereo not drawn) | -13.1

Row | SMILES | hERG current change (%, negative = inhibition) at 10uM [%]
64 | C=CCSc1nc2ccccc2c(=O)[nH]1 | -0.587
65 | CNC(=O)c1c(NC(=O)CS(=O)(=O)c2ccccc2)sc(C)c1C | -9.71
66 | COc1ccc2c(CN3CCN(S(=O)(=O)c4cccs4)CC3)cc(=O)oc2c1 | -45.6
67 | Nc1c(C(=O)OCC2CCCO2)c2nc3ccccc3nc2n1C1CCCCC1 (stereo not drawn) | 19.7
68 | COc1ccccc1CN(C)C(=O)c1cc2ccccc2o1 | 5.61
69 | COc1ccccc1NC(=O)CSc1nnc(CNC(=O)COc2ccc(Cl)cc2)o1 | -43.7
70 | CC(C)[C@@H](C(=O)O)N(Cc1cccc(CN([C@H](C(=O)O)C(C)C)S(C)(=O)=O)c1)S(C)(=O)=O | 9.08
71 | CCOc1ccccc1NC(=O)c1cccc(NC(=O)C(C)C)c1 | -2.12
72 | CC(Sc1ccc2c(c1)OCCO2)C(=O)Nc1ccc2c(c1)OCO2 (stereo not drawn) | 4.25
73 | CC(C)(C)NC(=O)Cn1c(SCC(=O)NC2CCCCC2)nc2ccccc21 | 3.96
74 | Cc1cccc(C)c1NC(=O)Cn1nnc(-c2ccc(CN3CCC(C)CC3)cc2)n1 | 9.65
75 | Cc1ccsc1/C=N/NC(=O)CNC(=O)c1ccc(S(=O)(=O)N(C)C)cc1 | -23.9
76 | Cc1cc(NCc2ccccc2)nc2ccccc12 | -50.9
77 | COc1nc(-c2cnccn2)sc1C | 12.6
78 | S=c1[nH]nc(C2CCCCC2)n1/N=C/c1c(Cl)cccc1Cl | 12.5
79 | COC(=O)c1cc(NC(=O)CN(c2ccccc2OC)S(=O)(=O)c2ccccc2)ccc1Cl | 1.44
80 | Cc1ccc(S(=O)(=O)NCc2ccc(C(=O)N3CCc4ccccc4C3)cc2)cc1 | -6.9
81 | CCN(CC)C(=O)C1c2ccccc2Oc2ccccc21 | 13.1
82 | NS(=O)(=O)c1ccc(NC(=O)COC(=O)c2cnc(Cl)c(Cl)c2)cc1 | 15.2
83 | CCOc1ccc(N2C(=O)C3C4C=CC(CC4)C3C2=O)c([N+](=O)[O-])c1 (stereo not drawn) | -30.8
84 | Cc1ccc(NC(=O)CCC(=O)OCC(=O)c2ccc(Oc3ccc([N+](=O)[O-])cc3)cc2)c(C)c1 | 5.55
